{"source": "PubChem BioAssay AID588342", "about": "(National Center for Advancing Translational Sciences (NCATS), 2011)", "note": "In all, about 360,000 compounds went through this assay and about 25,000 (6.9%) were called active. The shares of active, inactive and inconclusive entries below differ from those in the screen. Calls come from the whole dose curve; as a rule, active = well fitted inhibition curve with a large enough effect; inconclusive = small, poorly fitted or top-dose-only effect; inactive = flat fitted curve, though single readings scatter. Potencies beside an inconclusive call are fits to weak or partial responses and may not hold up. Potency is the fitted concentration of half-maximal effect; tags give direction and shape of the fitted curve."}
{"target": "Luciferin 4-monooxygenase (Photinus pyralis) (UniProt P08659)", "sequence (P08659 whole entry, looked up)": "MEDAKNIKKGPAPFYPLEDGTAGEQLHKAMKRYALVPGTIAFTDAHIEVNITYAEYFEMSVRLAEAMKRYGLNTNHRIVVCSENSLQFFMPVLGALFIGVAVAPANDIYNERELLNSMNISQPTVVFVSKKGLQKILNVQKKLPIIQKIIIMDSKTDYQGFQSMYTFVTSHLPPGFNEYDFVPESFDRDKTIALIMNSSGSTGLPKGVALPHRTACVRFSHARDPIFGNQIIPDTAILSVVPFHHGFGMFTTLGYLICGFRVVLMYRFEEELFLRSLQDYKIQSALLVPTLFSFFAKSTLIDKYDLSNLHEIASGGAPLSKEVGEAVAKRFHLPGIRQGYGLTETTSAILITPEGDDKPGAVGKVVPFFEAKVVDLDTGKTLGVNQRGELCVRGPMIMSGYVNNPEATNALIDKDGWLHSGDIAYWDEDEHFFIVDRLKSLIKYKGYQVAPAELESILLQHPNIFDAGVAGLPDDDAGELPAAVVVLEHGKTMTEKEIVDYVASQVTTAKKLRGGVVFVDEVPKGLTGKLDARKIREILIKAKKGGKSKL", "test": "qHTS profiling assay for firefly luciferase inhibitor/activator using purifed enzyme and Km concentrations of substrates (counterscreen for miR-21 project); note: nearly all actives have a fitted effect of over 55% in size;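 for activity change, negative = inhibition: plate controls were vehicle for no effect and reference inhibitor for full effect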", "settings": "purified FLuc, luminescence inhibition; activity change, negative = inhibition: at 57.5 µM (top of the series)", "method_in_brief": "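Purified P. pyralis luciferase (10nM final) with 10uM D-luciferin and 10uM ATP (Km levels) in 50mM Tris acetate pH 7.5, 10mM Mg acetate, 0.01% Tween-20, 0.05% BSA; qHTS 6-point titration, ~60 µM downward; luminescence read.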"}
{"smiles": "CCc1cccc(NC(=O)c2oc3ccc4c(c3c2C)C(=O)CC(C)(C)O4)c1", "Potency": "active: 0.849 µM"}
{"smiles": "CCO[C@H]1OC(C(=O)Nc2ccccc2)=C[C@@H](C2CC2)[C@@H]1CCCO", "activity change, negative = inhibition": "inactive: -2.36%"}
{"smiles": "CC(C)Sc1nc(N)nc(-c2cccs2)c1C#N", "Potency": "active: 16.9 µM"}
{"smiles": "Cc1ccc2cc3c(NC(=O)c4cccnc4)nn(C)c3nc2c1", "Potency": "inconclusive: 16.9 µM [inhibitor, partial curve]"}
{"smiles": "NC(=O)C1CCN(C(=O)CN(c2ccc3c(c2)OCCO3)S(=O)(=O)c2ccccc2)CC1", "Potency": "inconclusive: 8.49 µM [inhibitor, single point]"}
{"smiles": "CCOc1ccc(NS(=O)(=O)c2ccc3[nH]cc(C(=O)N4CCCCCC4)c(=O)c3c2)cc1", "Potency": "inconclusive: 10.7 µM [inhibitor, partial curve]"}
{"smiles": "O=C(c1ccc2c(c1)OCCO2)N(Cc1cccnc1)c1nc2c(F)cc(F)cc2s1", "Potency": "inconclusive: 10.7 µM [inhibitor, partial curve]"}
{"smiles": "Cc1cc(-c2cc(-c3ccccc3)on2)nc(NCC2CC2)n1", "Potency": "inconclusive: 19 µM [inhibitor, partial curve]"}
{"smiles": "O=[N+]([O-])c1cccc(N2Cc3ccccc3C2)c1", "Potency": "inconclusive: 33.8 µM [inhibitor, single point]"}
{"smiles": "COc1ccccc1-n1c(SCc2cc(=O)oc3cc(O)ccc23)nc2ccccc2c1=O", "Potency": "inconclusive: 37.9 µM [inhibitor, partial curve, poor fit]"}
{"smiles": "Cc1cc(NCc2ccccn2)n2nc(C)c(-c3ccccc3)c2n1", "Potency": "inconclusive: 23.9 µM [inhibitor, partial curve, poor fit]"}
{"smiles": "Cc1[nH]n(-c2ccccc2)c(=O)c1/C=C1/C=c2ccccc2=N1", "Potency": "inconclusive: 2.69 µM [inhibitor, full curve]"}
{"smiles": "CCc1sc(C(=O)Nc2ncccc2C)cc1C", "Potency": "inconclusive: 26.9 µM [inhibitor, single point]"}
{"smiles": "CCN(CC)S(=O)(=O)c1ccc(/C=C/C(=O)Nc2cccc(F)c2)cc1", "Potency": "inconclusive: 15.1 µM [inhibitor, partial curve]"}
{"smiles": "O=c1c(C/C=C/c2ccccc2)c(O)ccn1Cc1ccc(Cl)cc1Cl", "Potency": "inconclusive: 23.9 µM [inhibitor, single point]"}
{"smiles": "O=C(Nc1ccc(C(=O)NCc2ccccc2Cl)cc1)C1=CSCCO1", "Potency": "inconclusive: 26.9 µM [inhibitor, single point]"}
{"smiles": "O=C(CSC(=S)N1CCCCC1)c1ccccc1", "Potency": "active: 1.2 µM"}
{"smiles": "O=C(COc1ccc(F)cc1)Nc1ccccc1OCc1cc(=O)n2ccccc2n1", "Potency": "inconclusive: 3.38 µM [inhibitor, partial curve, poor fit]"}
{"smiles": "O=C(N/N=C/C=C/c1ccccc1)c1cc2c(ccc3ccccc32)o1", "Potency": "inconclusive: 1.35 µM [inhibitor, partial curve, poor fit]"}
{"smiles": "Cc1ccc2c(CSc3nnc4ccccn34)cc(=O)oc2c1C", "Potency": "inconclusive: 26.9 µM [inhibitor, partial curve, poor fit]"}
{"smiles": "O=C(CSc1nc(=O)n(CCCN2CCOCC2)c2c1CCCC2)Nc1ccc(Cl)cc1", "activity change, negative = inhibition": "inactive: 5.24%"}
{"smiles": "COc1ccc(-c2noc(-c3ccc(NC4CCCCC4)c([N+](=O)[O-])c3)n2)cc1", "activity change, negative = inhibition": "inactive: -0.475%"}
{"smiles": "Nc1cc(N)nc(SCc2cccc(F)c2)n1", "Potency": "inconclusive: 23.9 µM [inhibitor, partial curve]"}
{"smiles": "COC(=O)c1c(NC(=O)c2ccn(C)n2)sc2c1CCC2", "Potency": "inconclusive: 8.49 µM [inhibitor, partial curve, poor fit]"}
{"smiles": "COc1ccc(-n2nnnc2SCC(=O)Nc2ccc3c(c2)OCCO3)c(OC)c1", "Potency": "inconclusive: 37.9 µM [inhibitor, partial curve, poor fit]"}
{"smiles": "Cc1ccc(C(=O)/C=C/NCc2ccc(F)cc2)cc1", "Potency": "active: 16.9 µM"}
{"smiles": "COc1cccc(NC(=O)c2ccc3[nH]c(C)cc(=O)c3c2)c1", "activity change, negative = inhibition": "inactive: 5.86%"}
{"smiles": "O=C(NCc1cccc(C(F)(F)F)c1)C1CCCN(c2cnccn2)C1", "note": "(centres undefined)", "activity change, negative = inhibition": "inactive: -3.01%"}
{"smiles": "Nc1nnc(SCC(=O)Nc2ccc(N3CCOCC3)c(Cl)c2)s1", "Potency": "inconclusive: 21.3 µM [inhibitor, single point]"}
{"smiles": "O=C(c1cc(-c2ccc(Br)cc2)on1)N1CCOCC1", "Potency": "active: 1.9 µM"}
{"smiles": "CCC(C)(O)c1[nH]c2ccc(C(=O)OC)cc2c1C", "note": "(centres undefined)", "Potency": "active: 21.3 µM"}
{"smiles": "N/C(=N\\OC(=O)c1cccc2ccccc12)c1cccc([N+](=O)[O-])c1", "Potency": "inconclusive: 3.79 µM [inhibitor, full curve]"}
{"smiles": "Cc1nc(OCc2ccccc2)c2sc3nc4c(cc3c2n1)COC(C)(C)C4", "Potency": "inconclusive: 23.9 µM [inhibitor, partial curve, poor fit]"}
{"smiles": "C=CCn1c(SCC(=O)C(C)(C)C)nnc1-c1cccs1", "Potency": "inconclusive: 19 µM [inhibitor, partial curve]"}
{"smiles": "CN1CCN(C(=O)CCCN2C(=O)/C(=C/c3cccc(Br)c3)SC2=S)CC1", "Potency": "inconclusive: 21.3 µM [inhibitor, single point]"}
{"smiles": "CCOc1ccccc1N1CC(O)=C(c2nc3ccccc3s2)C1=N", "activity change, negative = inhibition": "inactive: -12.9%"}
{"smiles": "CC[n+]1c(C)sc2sc3ccccc3c21", "Potency": "inconclusive: 9.53 µM [inhibitor, partial curve]"}
{"smiles": "N/C(=N\\OS(=O)(=O)c1ccc2ccccc2c1)c1cccnc1", "Potency": "inconclusive: 12 µM [inhibitor, partial curve, poor fit]"}
{"smiles": "Cc1cccc(C)c1OCc1nc2ccccc2[nH]1", "Potency": "inconclusive: 26.9 µM [inhibitor, partial curve, poor fit]"}
{"smiles": "O=C1c2ccccc2-c2onc3ccc(NCc4ccco4)c1c23", "Potency": "inconclusive: 23.9 µM [inhibitor, single point]"}
{"smiles": "COc1ccccc1CNCC(=O)Nc1ccc(N(C)C)cc1", "Potency": "inconclusive: 21.3 µM [inhibitor, partial curve, poor fit]"}
{"smiles": "O=C(/C=C/c1ccc(Br)cc1)c1ccc(NC2=NCCCS2)cc1", "Potency": "inconclusive: 10.7 µM [inhibitor, single point]"}
{"smiles": "COc1cccc(C(c2sc3nc(-c4ccco4)nn3c2O)N2CCN(c3ccccc3F)CC2)c1", "note": "(centres undefined)", "Potency": "inconclusive: 21.3 µM [inhibitor, single point]"}
{"smiles": "Cc1nc2nc(-c3cccnc3)[nH]n2c(=O)c1Cc1ccccc1", "Potency": "inconclusive: 23.9 µM [inhibitor, partial curve]"}
{"smiles": "COc1cccc(N2CCN(C(=O)c3ccc4nc(N5CCCCC5)sc4c3)CC2)c1", "Potency": "active: 19 µM"}
{"smiles": "O=C(NC1CCCCCCC1)c1ccc(Br)o1", "Potency": "inconclusive: 19 µM [inhibitor, single point]"}
{"smiles": "COc1ccc(-c2ccc(CCC(=O)O)n2CC(=O)Nc2cccc(Cl)c2C)cc1", "Potency": "inconclusive: 19 µM [inhibitor, partial curve, poor fit]"}
{"smiles": "Cc1c(C(=O)N(Cc2ccc(N(C)C)cc2)Cc2ccco2)oc2cc(Br)ccc12", "activity change, negative = inhibition": "inactive: -1.91%"}
{"smiles": "Cn1cc(C(=O)NCCc2ccccc2)c(=O)c2cc(S(=O)(=O)N3CCCCCC3)ccc21", "activity change, negative = inhibition": "inactive: -7.13%"}
{"smiles": "CC(=O)c1cccc(Nc2nn(-c3ccc(OC(F)(F)F)cc3)nc2C(C)=O)c1", "Potency": "active: 6.01 µM"}
{"smiles": "COc1ccccc1-c1noc(-c2ccc(NCc3cccnc3)c([N+](=O)[O-])c2)n1", "Potency": "inconclusive: 16.9 µM [inhibitor, partial curve]"}
{"smiles": "CCCSc1nnc2c(n1)OC(c1ccc(OCC(=O)O)cc1)Nc1ccccc1-2", "note": "(centres undefined)", "Potency": "inconclusive: 16.9 µM [inhibitor, partial curve]"}
{"smiles": "COc1ccccc1CNc1ncc(-c2ccccc2)n1C", "Potency": "inconclusive: 21.3 µM [inhibitor, partial curve, poor fit]"}
{"smiles": "CC1=C(C(=O)Nc2cccc(C(=O)NCc3ccc(F)cc3)c2)SCCO1", "activity change, negative = inhibition": "inactive: -18%"}
{"smiles": "CC(C)c1ccc(-c2nnc(N)s2)cc1", "Potency": "active: 1.9 µM"}
{"smiles": "CCc1ccc(-n2cnc3cc(C(=O)NCC(OC)OC)ccc32)cc1", "Potency": "inconclusive: 23.9 µM [inhibitor, partial curve, poor fit]"}
{"smiles": "O=C(NCc1ccccn1)c1cccc(NS(=O)(=O)c2ccc(Br)cc2)c1", "activity change, negative = inhibition": "inactive: 2.67%"}
{"smiles": "N=c1sccn1CC(=O)Nc1ccccc1Oc1ccccc1", "Potency": "inconclusive: 37.9 µM [inhibitor, partial curve, poor fit]"}
{"smiles": "COc1ccc(-c2csc(NC(=O)CN3C(=O)C4CCCCC4C3=O)n2)c(OC)c1", "note": "(centres undefined)", "Potency": "inconclusive: 12 µM [inhibitor, partial curve]"}
{"smiles": "COc1cc(C)ccc1OCCSc1nc2ccc(NC(=O)c3ccc(C)cc3)cc2s1", "activity change, negative = inhibition": "inactive: -15.1%"}
{"smiles": "NC(=O)C1Cc2ccccc2CN1C(=O)c1nn(Cc2ccccc2)c(=O)c2ccccc12", "note": "(centres undefined)", "activity change, negative = inhibition": "inactive: 1.69%"}
{"smiles": "Cc1ccc2[nH]c(=O)c(Cc3ccccc3)c(O)c2c1", "Potency": "inconclusive: 12 µM [inhibitor, partial curve, poor fit]"}
{"smiles": "Cc1ccc(-c2nnc(Nc3ccc(OCC(N)=O)cc3)c3ccccc23)cc1S(=O)(=O)N(C)C", "Potency": "inconclusive: 33.8 µM [inhibitor, single point]"}
{"smiles": "O=C(c1cc(COc2ccc(F)cc2Cl)on1)N1C[C@H]2CC[C@H]1C2", "Potency": "active: 13.5 µM"}
{"smiles": "CN(C)S(=O)(=O)c1cccc(N=C2NN=C(c3ccccc3)CS2)c1", "Potency": "inconclusive: 37.9 µM [inhibitor, single point]"}
{"smiles": "COc1cccc2c1Oc1ncccc1N(C(=O)CCC(=O)NC(C)C)C2", "activity change, negative = inhibition": "inactive: -1.34%"}
{"smiles": "Cc1ccc(Cn2nc(-c3ccccc3)nc2-c2ccccc2)cc1", "Potency": "active: 15.1 µM"}
{"smiles": "CCCCn1c(O)c(N=Nc2ccccn2)c2ccccc21", "Potency": "inconclusive: 37.9 µM [inhibitor, partial curve, poor fit]"}
{"smiles": "Clc1ccc(/C=N/Nc2nn[nH]n2)cc1", "Potency": "inconclusive: 37.9 µM [inhibitor, partial curve, poor fit]"}
